# Assay results from paper PMC4336329 (PLoS ONE, 2015).
# About 14,000 (4.5%) of roughly 310,000 compounds showed an effect of 50% or more. Effects have a minus sign here. The list shows a part of the results.
# Biological target: human ether-à-go-go-related gene (hERG) potassium channel (human, UniProt Q12809)
# Test: primary screen, population patch clamp on CHO cells stably expressing hERG
# 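Also: peak tail current of the secondary pulse compared with the same well before compound.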
# human ether-à-go-go-related gene (hERG) potassium channel, sequence (Q12809 whole entry, looked up): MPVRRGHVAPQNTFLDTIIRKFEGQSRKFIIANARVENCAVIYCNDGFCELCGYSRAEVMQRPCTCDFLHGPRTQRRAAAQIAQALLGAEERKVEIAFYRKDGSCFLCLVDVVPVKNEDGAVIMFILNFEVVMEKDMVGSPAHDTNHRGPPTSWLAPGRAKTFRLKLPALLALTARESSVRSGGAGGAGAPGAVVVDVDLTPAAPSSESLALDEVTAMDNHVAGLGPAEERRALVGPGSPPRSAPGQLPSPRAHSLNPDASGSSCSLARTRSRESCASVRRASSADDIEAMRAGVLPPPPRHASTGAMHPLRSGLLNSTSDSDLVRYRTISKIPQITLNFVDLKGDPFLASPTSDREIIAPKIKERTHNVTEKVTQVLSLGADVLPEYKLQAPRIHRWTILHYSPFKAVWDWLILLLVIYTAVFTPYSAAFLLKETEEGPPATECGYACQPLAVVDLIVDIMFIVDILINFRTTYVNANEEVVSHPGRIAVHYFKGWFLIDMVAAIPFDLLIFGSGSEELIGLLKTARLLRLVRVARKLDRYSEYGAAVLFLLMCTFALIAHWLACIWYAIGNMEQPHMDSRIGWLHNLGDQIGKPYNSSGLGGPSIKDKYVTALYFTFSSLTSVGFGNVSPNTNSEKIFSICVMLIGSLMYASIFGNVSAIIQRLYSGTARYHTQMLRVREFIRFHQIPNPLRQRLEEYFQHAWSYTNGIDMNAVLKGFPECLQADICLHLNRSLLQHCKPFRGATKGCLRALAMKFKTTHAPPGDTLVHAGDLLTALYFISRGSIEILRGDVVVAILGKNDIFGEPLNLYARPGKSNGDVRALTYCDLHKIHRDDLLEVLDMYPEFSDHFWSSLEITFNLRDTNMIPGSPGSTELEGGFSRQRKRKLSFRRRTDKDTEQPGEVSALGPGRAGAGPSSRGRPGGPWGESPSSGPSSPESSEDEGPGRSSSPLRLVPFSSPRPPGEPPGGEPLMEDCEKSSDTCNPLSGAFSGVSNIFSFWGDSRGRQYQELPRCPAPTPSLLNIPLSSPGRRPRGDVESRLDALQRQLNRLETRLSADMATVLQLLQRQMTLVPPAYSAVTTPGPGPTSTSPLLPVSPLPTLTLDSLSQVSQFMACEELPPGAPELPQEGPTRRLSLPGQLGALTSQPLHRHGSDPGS
row,Structure (SMILES),"hERG current change (%, negative = inhibition) at 10uM"
1,N#Cc1ccc(COC(=O)CSc2nnc(N)s2)cc1,-3.8%
2,Fc1ccc(N2Cc3ccsc3C=N2)cc1,12.4%
3,Cc1nn(-c2ccccc2)c2sc(C(=O)NNC(=O)COc3cccc4ccccc34)cc12,-2.4%
4,CCOc1ccc(C(=O)OCC(=O)Nc2nc(OC)cc(OC)n2)cc1OCC,11.3%
5,Cl.OC1(C#CCN2CCCC2)CCCCC1,9.16%
6,O=C(NCCCCc1ccccc1)Nc1ccc(F)cc1F,10.7%
7,CCc1ccc(-c2cc3c(=O)n(CC(=O)NCCCN4CCN(C)CC4)ncn3n2)cc1,-4.24%
8,Cc1c(NC(=O)C(C)C)cccc1-c1nc2ncccc2o1,12.9%
9,CCOC(=O)CN(C(=O)c1snc(C(N)=O)c1N)C(C(=O)NCCC(C)C)c1ccc(F)cc1 (stereo not drawn),-4.75%
10,CCOC(=O)N1CCN(C(=O)CCS(=O)(=O)c2ccc(Br)s2)CC1,1.85%
11,COc1ccc2[nH]c(=O)c(CN(C(C)=O)C3CCCCC3)cc2c1,-12.9%
12,O=C(/C=C/c1c(Cl)cccc1Cl)N1CCN(c2ncccn2)CC1,-72.7%
13,CCOC(=O)c1ccc(NC(=O)c2cc3c(C)nn(-c4ccccc4Cl)c3s2)s1,18.8%
14,COc1ccccc1-c1nc(C#N)c(N2CCN(c3cccc(Cl)c3)CC2)o1,-2.07%
15,Cc1ccc(NC(=O)CSCC(=O)Nc2cccc(S(=O)(=O)N3CCCCCC3)c2)cc1,-24.5%
16,Cc1cc(SCC(=O)N/N=C/c2ccc(O)cc2O)c(C)cc1Br,4.53%
17,COc1ccccc1OCC#CCN1CCOCC1.O=C(O)C(=O)O,18.9%
18,COc1ccc(C2CC(=O)N3C(=C2C#N)SCC3(O)c2ccccc2)cc1 (stereo not drawn),-24.5%
19,Cc1ccc(C(=O)N(CC(=O)NC2CCCC2)c2ccc3c(c2)OCCO3)s1,-17.1%
20,O=C(NCc1ccco1)C1OCCc2ccccc21 (stereo not drawn),-2.06%
21,COc1ccc(OCC(=O)OCC(=O)NCc2ccco2)cc1,-4.81%
22,Cc1ccc(NC(=S)N2CCOCC2)cc1,-27.9%
23,Cc1ccc(N(CC(=O)NC2CCCC2)C(=O)CCCC(=O)Nc2ccccn2)cc1C,2.86%

row,Structure (SMILES),"hERG current change (%, negative = inhibition) at 10uM"
1,O=C(O)c1ccccc1SCc1cn2ccccc2n1,4.74%
2,Cc1ccc(S(=O)(=O)NCCc2ccncc2)cc1,-0.657%
3,CN1CCN(C(=S)NC(=O)c2cccc([N+](=O)[O-])c2)CC1,25.5%
4,CN(C(=O)COc1cc(=O)n(C)c2ccccc12)c1cccc(Cl)c1,-19%
5,CN(C)c1ccc(CNC(=O)CN(C)S(=O)(=O)c2ccc3c(c2)c(=O)n(C)c(=O)n3C)cc1,9.67%
6,Cc1csc2nc(CNC(=O)c3ccco3)cn12,24.9%
7,CCOC(=O)C1=C(c2ccccc2)NC(=O)NC1c1ccc(O)c(Cl)c1 (stereo not drawn),4%
8,Cc1ccc(C2=N/C(=C\c3ccc(F)cc3)C(=O)N2)cc1,-1.1%
9,Cc1ccc(NC(=O)C2=COCCO2)cc1S(=O)(=O)N1CCOCC1,-0.0399%
10,Cc1cc(C(=O)NNC(=S)Nc2cccc(C(F)(F)F)c2)nn1C,30.1%
11,COC(=O)c1sccc1NC(=O)c1ccoc1C,8.11%
12,COc1ccc2cc(C(=O)Nc3ccc(F)cc3)sc(=O)c2c1OC,7.9%
13,N#Cc1ccccc1NC(=O)c1ccccc1OCC(=O)Nc1ccc2c(c1)oc1ccccc12,16.2%
14,CCC(=O)Nc1sc(C(=O)OC)c(C)c1C(=O)OC,7.74%
15,COc1ccc(-c2nc(N3CCCCCC3)sc2C(=O)c2ccccc2)cc1,4.37%
16,C#CC(C)(CC)NC(=O)Cn1nnc(-c2cccc(C(F)(F)F)c2)n1 (stereo not drawn),-10.4%
17,CCCCS(=O)(=O)N1CCCC(C(=O)NCCc2ccccc2)C1 (stereo not drawn),12.7%
18,CC1CCCC(C)N1C(=O)CSc1nnc(COc2ccccc2)n1-c1ccccc1 (stereo not drawn),1.37%
19,NC(=O)C1CCN(C(=O)CCc2nc3ccccc3c(=O)[nH]2)CC1,-1.48%
20,O=C(C[N+]1(CC#Cc2ccccc2)CCOCC1)c1ccccc1.[Br-],35.8%
21,CCN(CCCNC(=O)CN(C)S(=O)(=O)c1cccc2nsnc12)c1ccccc1,-14.8%
22,O=C(c1ccncc1)N(Cc1ccccc1)Cc1nc2ccccc2c(=O)[nH]1,-10.3%
23,CCc1ccc(NC(=O)Nc2cccc(OC)c2)cc1,7.44%

row,Structure (SMILES),"hERG current change (%, negative = inhibition) at 10uM"
1,CCC(C(=O)OCCOCCN(CC)CC)c1ccccc1 (stereo not drawn),1.01%
2,O=C(NCc1cccnc1)C(=O)N/N=C/c1ccc([N+](=O)[O-])cc1,23.4%
3,COc1ccc(C)cc1NC(=O)CSCc1ccccc1C,-4%
4,CCOC(=O)N1CCN(C(=O)C2CCN(S(=O)(=O)c3cc(C)ccc3OC)CC2)CC1,12.6%
5,CCCCN(C)C(=O)C1CCN(Cc2cccc(OCc3ccccc3)c2)CC1.O=C(O)C(=O)O,-67.7%
6,CCCc1cc2c(=O)c(-c3ccccn3)coc2cc1OC,0.316%
7,CCn1c(SCC(=O)Nc2ccc(NC(C)=O)cc2)nc2c([nH]c3ccccc32)c1=O,20.2%
8,CC(Oc1ccccc1F)c1nnc(SCC(=O)Nc2ccc(N3CCOCC3)cc2)o1 (stereo not drawn),-13.8%
9,Cn1c(CN2CCOCC2)nc2cc(NC(=O)COc3ccccc3)ccc21,-0.505%
10,CC1CCN(S(=O)(=O)c2ccc3c(c2)CCN3C(=O)C2CCC2)CC1,10.1%
11,COc1cccc(NC(=S)Nc2ccc(Br)cc2Cl)c1,18.1%
12,CCOC(=O)C(CC)(CC)C(=O)/C=C/c1ccc(Br)cc1,5.02%
13,CCn1c(SCC(=O)NC2CCCc3ccccc32)nnc1-c1ccncc1 (stereo not drawn),-9.78%
14,CCCCCCCN1CCC(=O)N([C@H](CO)Cc2ccccc2)CC1,-78.8%
15,COc1ccc(CN(Cc2cc3cc4c(cc3[nH]c2=O)OCO4)C(=O)NC2CCCCC2)cc1,-17.6%
16,COc1ccc(OCC(O)CN2CCCCCC2)cc1 (stereo not drawn),9.18%
17,COC(=O)c1c(NC(=O)COC(=O)c2ccc(O)cc2)sc2c1CCCCC2,17%
18,O=c1cc(CSc2ccc(Cl)cc2)nc(-c2ccccn2)[nH]1,-0.0469%
19,O=C(CC1CCCCC1)Nc1ccc(-c2ccc3nncn3n2)cc1,6.41%
20,COc1ccc(S(=O)(=O)N2CC3CCCN3c3ccc(C(F)(F)F)cc32)cc1 (stereo not drawn),6.9%
21,CCc1ccc(S(=O)(=O)NCc2csc(-c3ccccc3)n2)s1,-9.83%
22,CNC(=O)/C=C/c1cccc(C(F)(F)F)c1,4.99%
23,O=C(NCCC1=CCCCC1)NC1CCCCC1,8.08%

row,Structure (SMILES),"hERG current change (%, negative = inhibition) at 10uM"
1,O=C(Cn1c(SCC(=O)NC2CCCC2)nnc1-c1ccncc1)Nc1ccc2c(c1)OCO2,-11.7%
2,CCCC(=O)Nc1sc(C)c(C)c1C#N,2.9%
3,O=C(NCCCn1ccnc1)c1ccc(Br)c(S(=O)(=O)N2CCOCC2)c1,-7.41%
4,O=C(Nc1ccccc1OC(=O)N1CCOCC1)N1CCOCC1,3%
5,COc1ccc(NS(=O)(=O)c2ccc(NS(C)(=O)=O)cc2)cc1,-16.2%
6,Clc1ccc(C2CC(c3cccs3)n3ncnc3N2)cc1 (stereo not drawn),-31.8%
7,COc1ccc(C(CNC(=O)c2ccc(Cl)c(NC(=O)c3cccs3)c2)N2CCCC2)cc1 (stereo not drawn),-70.9%
8,Clc1nc(NCc2ccco2)nc(N2CCCCC2)n1,33.5%
9,COc1ccc2c(c1)CC/C(=C\c1ccc(OC)c(Cn3cccn3)c1)C2=O,-13.1%
10,Cn1cccc1C(=O)OCC(=O)Nc1ccc2c(c1)OCO2,20.5%
11,O=C(Cc1ccccc1F)Nc1ccc(SC(F)F)cc1,14%
12,Cc1ccc(NC(=O)COC(=O)COc2cccc3c2OC(C)(C)C3)cc1C,-13.9%
13,CCOC(=O)C1CCCN(S(=O)(=O)c2ccc3c(c2)CC(C)N3C(=O)C2CC2)C1 (stereo not drawn),9.65%
14,COc1cc(/C=C2\C(=O)N(c3ccc(S(N)(=O)=O)cc3)N=C2C)ccc1OC(=O)c1ccco1,8.12%
15,O=C(NNC(=O)c1cccc2ccccc12)c1ccc2c(c1)OCO2,4.09%
16,COC(=O)c1cc(NC(=O)c2cccnc2)cc(C(=O)OC)c1,11%
17,Cc1nc(-c2ccc(F)cc2)c(CC(=O)N(C)CC(=O)Nc2ccccc2C(F)(F)F)s1,2.06%
18,CCC(C)NC(=O)c1cc2c(=O)[nH]c3ccc(C)cc3c2s1 (stereo not drawn),18%
19,N/C(=N\c1nc2ccccc2o1)NC(=O)c1ccccc1Br,12.5%
20,O=C(C1CC(=O)N(c2ccccc2)C1)N1CCN(c2ccccc2)CC1 (stereo not drawn),-29%
21,CCCCCCCCCCCCN1[C@@H](CC(=O)OC)c2cc(F)cc(F)c2S1(=O)=O,11.1%
